Experimental data as given in patent US20240270866A1 (Alector, published 2024).
Values belong to the binder of their own block, whether it stands above or below them.

What was measured:
[1] = target: T1, Human SIRPA D1 Fc (human, UniProt P78324 32-137); assay: ForteBio IgG avid;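 further: antibody IgG captured on AHQ biosensors, then 100 nM Fc-fused SIRP antigen applied for 3 min, followed by 3 min buffer dissociation, kinetics fitted to a 1:1 model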
T1 construct: not shown: human IgG1 Fc

[2] = target: T2, Mouse SIRPA D1 Fc (mouse, UniProt P97797 32-150, limits assumed); assay: ForteBio IgG avid;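 further: antibody IgG captured on AHQ biosensors, then 100 nM Fc-fused SIRP antigen applied for 3 min, followed by 3 min buffer dissociation, kinetics fitted to a 1:1 model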
T2 sequence: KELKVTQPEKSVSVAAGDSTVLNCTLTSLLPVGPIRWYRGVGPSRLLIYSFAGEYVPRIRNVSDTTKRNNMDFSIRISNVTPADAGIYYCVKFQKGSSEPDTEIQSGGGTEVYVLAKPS

[3] = target: Human SIRPb D1 Fc (human, UniProt O00241 30-148, limits assumed); assay: ForteBio IgG avid;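 further: antibody IgG captured on AHQ biosensors, then 100 nM Fc-fused SIRP antigen applied for 3 min, followed by 3 min buffer dissociation, kinetics fitted to a 1:1 model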
[4] = target: T3, human SIRPA overexpressed on CHO cells (human, UniProt P78324 31-504); assay: flow, CHO-huSIRPA;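 further: Anti-SIRPA antibodies applied at 1 µg/mL for 1 h on ice, binding read by flow cytometry using a PE-labelled secondary antibody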
T3 construct: also called CHO-huSIRPA

[5] = target: T4, mouse SIRPA overexpressed on CHO cells (mouse, UniProt P97797 32-513); assay: flow, CHO-muSIRPA;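 further: antibody binding measured by flow cytometry: cells stained with 1 ug/ml test antibody for 1 h on ice, detected with PE-labelled secondary antibody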
T4 construct: also called CHO-muSIRPA
T4 sequence: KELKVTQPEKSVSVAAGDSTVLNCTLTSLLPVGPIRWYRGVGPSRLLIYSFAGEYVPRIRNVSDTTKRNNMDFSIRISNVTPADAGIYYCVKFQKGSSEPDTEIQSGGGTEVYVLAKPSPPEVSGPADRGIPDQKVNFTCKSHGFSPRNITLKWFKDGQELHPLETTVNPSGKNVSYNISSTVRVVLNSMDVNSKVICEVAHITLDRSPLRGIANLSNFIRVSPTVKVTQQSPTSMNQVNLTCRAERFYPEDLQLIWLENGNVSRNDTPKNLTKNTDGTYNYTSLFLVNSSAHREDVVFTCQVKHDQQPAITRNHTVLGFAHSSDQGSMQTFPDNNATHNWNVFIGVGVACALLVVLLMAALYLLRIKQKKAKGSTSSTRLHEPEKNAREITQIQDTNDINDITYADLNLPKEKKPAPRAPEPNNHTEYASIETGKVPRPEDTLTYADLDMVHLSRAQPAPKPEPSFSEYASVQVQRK

[6] = target: T5, human SIRPA Fc fusion antigen (human, UniProt P78324 31-373); assay: ForteBio Fab monovalent
T5 construct: heterologous signal peptide; not shown: human IgG1 Fc

Chain of UniProt O00241 (O00241 30-148 limits assumed): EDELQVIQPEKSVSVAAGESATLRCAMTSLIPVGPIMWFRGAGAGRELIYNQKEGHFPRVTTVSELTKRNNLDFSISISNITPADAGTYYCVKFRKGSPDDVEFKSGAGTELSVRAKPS

- Kd [1]: 6.89 nM
- binding result [2]: no binding (tested: 100 nM)
- binding result [3]: no binding (tested: 100 nM)
- relative MFI [4]: 49.2 fold over background
- relative MFI [5]: 0.542 fold over background
B1: SA-21 (antibody, V domains shown)
VH: [about 100 residues not written out]DPLHYYDSSGDVGIYWGQGTLVTVSS
VL: DIVMTQSPDSLAVSLGERATINCKSSQSVLFSSNNKNYLAWYQQKPGQPPKLLIYWASTRESGVPDRFSGSGSGTDFTLTISSLQAEDVAVYYCQQDYATPFTFGGGTKVEIK
notes: IgG

- Kd [6]: 359 nM
B2: SA-21 Fab (Fab, V domains shown)
VH: [about 100 residues not written out]DPLHYYDSSGDVGIYWGQGTLVTVSS
VL: B1 VL
notes: papain Fab
